According to the supplement of paper PMC8674133:

B1: C2160 (protein)
chain 1: EVQLVESGGGLVQPGRSLRLSCAASGFTFDDYAMHWVRQAPGKGLEWVSGISWNSGTIGYADSVKGRFTISRDNAKNSLYLQMNSLRAEDTALYYCAKDIRGPYDRTEEGAFDIWGQGTMVTVSS
chain 2: SYELTQPPSVSVAPGQTARITCGGNNIGSKSVHWYQQKPGQAPVLVVYDDSDRPSGIPERFSGSNSGNTATLTISRVEAGDEADYYCQVWDSTSDHRVFGGGTKLTVL
B2: C2165 (protein)
chain 1: EVQLVESGGGLVKPGGSLRLSCAASGFTFSTYSMNWVRQAPGKGLEWVSSITGSSSLIYYADSVKGRFTVSRDNAKNSLYLQMNGLRVEDTAVYYCAREGFYCSGGGCRWFDPWGQGTLVTVSS
chain 2: EIVLTQSPATLSLSPGESATLSCRASESVSSYLAWYQQKPGQAPRLLIYDASNRATGIPARFSGSGSGTDFTLTISSLEPEDFAVYYCQHRSNWPPTFGGGTKVEIK
B3: C2230 (protein)
chain 1: VQLVESGGGVVQPGRSLRLSCAASGFTFSSYGMHWVRQAPGKGLEWVAVISYDGSNKYYADSVKGRFTISRDNSKNTLYLQMNSLRAEDTAVYYCAKNFYSYGYQGYYFDYWGQGTLVTVSS
chain 2: IRMTQSPSSLSASVGDRVTITCQASQDISNYLNWYQQKPGKAPKLLIYDASNLETGVPSRFSGSGSGTDFTFTISSLQPEDIATYYCQQYDNLVTFGGGTKVEIK
B4: C2209 (protein)
chain 1: EVQLVESGGGLVQPGRSLRLSCAASGFTFDDYAMHWVRQAPGKGLEWVSGISWNSGTIGYADSVKGRFTISRDNAKNSLYLQMNSLRAEDTALYYCAKDYCGGDCYSPTRGAGYGMDVWGQGTTVTVSS
chain 2: QSALTQPASVSGSPGQSITISCTGTSSDVGGYNYVSWYQQHPGKAPKLMIYDVSNRPSGVSNRFSGSKSGNTASLTISGLQAEDEADYYCSSYTSSSGVVFGGGTKLTVL
B5: C2028 (protein)
chain 1: EVQLLESGGALVQPGGSLRLSCAASGFTFIYSGMSWVRQAPGKGLEWVSAITGSGGNTYYADSVKGRFTISRDNSKNTLYLQLDSLRAEDTAIYYCAKTPMASPATRYDYWGQGSLVTVSS
chain 2: DIQMTQSPSALSASVGDRVTITCRASQNINDWLAWYQQKPGKAPKLLIYRASSLESGVPSRFSGSGSGREFTLTISSLQPDDFAAYYCQQYKSYPLTFGGGTKVEIK
B6: C2219 (protein)
chain 1: QVQLQESGPGLVRPSETLSLTCTVSGGSVFSTYSWLNWIRQPPGKGLEWIGHMYHTGTANYNPSLESRVTMSLDRSKNQMSLSLRSVTAADTAVYYCASGRDESKTGYWGQGTLVTVSS
chain 2: DIVMTQSPDSLSVSLGERATFNCKSSQTVLYSPNNKNYLAWFQQKPGQPPKLLIYWASLRDSGVPDRFSGSGSATDFTLTISSLQAEDVAVYFCQQYHSPPFTFGQGTKLEIK
B7: C2231 (protein)
chain 1: EVQLVESGGGLVQPGGSLRLSCAASGFTFSSYWMSWVRQAPGKGLEWVANIKQDGSEKYYVDSVKGRFTISRDNAKNSLYLQMNSLRAEDTAVYYCARDRWLRGDMDVWGKGTTVTVSS
chain 2: NFMLTQPHSVSESPGKTVTISCTGSSGSIASNYVQWYQQRPGSAPTTVIYEDNQRPSGVPDRFSGSIDSSSNSASLTISGLKTEDEADYYCQSYDSSSRVFGGGTKLTVL
B8: C2030 (protein)
chain 1: QVQLVQSGAEVKKPGASVKVSCKASGYTFTSYGISWVRQAPGQGLEWMGWISAYNGNTNYAQKLQGRVTMTTDTSTSTAYMELRSLRSDDTAVYYCARDRVLRFLGFDPWGQGTLVTVSS
chain 2: NFMLTQPHSVSESPGKTVTISCTGSSGSIASNYVQWYQQRPGSAPTTVIYEDNQRPSGVPDRFSGSIDSSSNSASLTISGLKTEDEADYYCQSYDSSNQGVVFGGGTKLTVL
B9: C2026 (protein)
chain 1: QVQLVESGGGVVQPGGSLRLSCAASGFTFSSYGMHWVRQAPGKGLEWVAFIRYDGSNKYYADSVKGRFTISRDNSKNTLYLQMNSLRAEDTAVYYCAKPQYSYGYEEGIYFDYWGQGTLVTVSS
chain 2: SYELTQPPSVSVAPGQTARITCGGNNIGSKSVHWYQQKPGQAPVLVVYDDSDRPSGIPERFSGSNSGNTATLTISRVEAGDEADYYCQVWDSSSDHPGVFGGGTKLTVL
B10: C2025 (protein)
chain 1: EVQLVESGGGLIQPGGSLRLSCAASGFTVSSNYMSWVRQAPGKGLEWVSVIYSGGSTYYADSVKGRFTISRDNSKNTLYLQMNSLRAEDTAVYYCAREYGDWEWGQGTLVTVSS
chain 2: DIQMTQSPSSLSASVGDRVTITCQASQDISSYLNWYQLKPGKAPKLLIYDASNLETGVPSRFSGSGSGTDFTFTISSLQPEDIATYYCHQYDNLPRTFGQGTKLEIK
B11: C2220 (protein)
chain 1: EVQLVESGGGLIQPGGSLRLSCVASGFTVSSNYMSWVRQAPGKGLEWVSVIYPGGSTFYADSVKGRFTISRDNSKNTLYLQMNSLRAEDTAVYYCAREYGDWEWGQGTLVTVSS
chain 2: IRMTQSPSSLSASVGDRVTITCQASQDIRNYLNWYQQKPGKAPKLLIYDASNLETGVPSRFSGSGSGTDFTFTISSLQPEDIATYYCQQYDNLPRTFGQGTKLEIK
B12: C2164 (protein)
chain 1: VQLVESGGGVVQPGRSLRLSCAASGFTFSSYGMHWVRQAPGKGLEWVAVISYDGSNKYYGDSVKGRFTISRDNSKNTLYLQMNSLRAEDTAVYYCAKPIYSYGSGSYSYFDYWGQGTLVTVSS
chain 2: IRMTQSPSSLSASVGDRVTITCQASQDISNYLNWYQQKPGKAPKLLIYDASNLETGVPSRFSGSGSGTDFTFTISSLQPEDIATYYCQQYDNLPQTFGQGTKLEIK
B13: C2232 (protein)
chain 1: EVQLVESGGGLIQPGGSLRLSCAASGLTVSSNYMSWVRQAPGKGLEWVSIIYSGGSTFYADSVKGRFTISRDNSKNTLYLQMNSLRAEDTAVYYCARDLQQLGGMDVWGQGTTVTVSS
chain 2: IRMTQSPSSLSASVGDRVTITCQASQDISNYLNWYQQKPGKAPKLLIYDASNLETGVPSRFSGSGSGTDFTFTISSLQPEDIATYYCHQYDNLPITFGQGTRLEIK
B14: C2233 (protein)
chain 1: EVQLVESGGGLIQPGGSLRLSCAASGFIVSSNYMNWVRQAPGKGLEWVSVIYSGGSTFYADSVKGRFTISRDNSKNTLYFQMNSLRAEDTAVYYCARFGGYELGGVDVWGQGTTVTVSS
chain 2: IRMTQSPSSLSASVGDRVTITCQASQDIRNYLNWYQQKPGKAPKLLIYDASNLETGVPSRFSGSGSGTDFTFTISSLQPEDIATYYCQQYDNLPITFGQGTRLEIK
B15: C2228 (protein)
chain 1: QVQLVQSGAEVRKPGASVKVSCKASGFTFISFAIHWVRQAPGQSLEWMGWINAGDGNTKYSQKFQGRVTITRHTSASTAYIELSSLRSEDTAVYYCARDFGGRESRGGAFDIWGQGTMVTVSS
chain 2: QSVLTQPPSVSEAPRQRVTISCSGSNSNIGNNVVNWYQQLPGKAPKLLIYYDDLLPSGVSDRFSGSKSGTSVSLVISGLQSEDEADYYCAAWDDSLNGYVFGTGTKVTVL
B16: C2221 (protein)
chain 1: EVQLVESGGGLVQPGGSLRLSCAASGFTVSSNYMTWVRQAPGKGLEWVSVIYSGGSTYYADSVKGRFTISRDNSKNTLYLQMNSLRAEDTAVYYCARDLEEKGAFDIWGQGTMVTVSS
chain 2: DIQLTQSPSFLSASVGDRVTITCRASQGISSYLAWYQQKPGKAPKLLIYAASTLQSGVPSRFSGSGSGTEFTLTISSLQPEDFATYYCQQLNSYPPYTFGQGTKLEIK

target: SARS-CoV-2 Wuhan-Hu-1 spike pseudovirus; test: pseudovirus neutralization IC50; higher = weaker neutralization
Protocol: (§1)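 Single-round luciferase reporter pseudovirus mixed with antibody dilutions and put on 293T-ACE2 cells for 48 h; signal relative to no-antibody wells, four-parameter fit.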

| Binder | pseudovirus neutralization IC50 [µg/mL] |
| --- | --- |
| B1 | 0.227 |
| B2 | > 1 |
| B3 | > 1 |
| B4 | 0.0445 |
| B5 | > 1 |
| B6 | 0.0288 |
| B7 | > 1 |
| B8 | 0.114 |
| B9 | 0.636 |
| B10 | 0.0475 |
| B11 | 0.0239 |
| B12 | > 1 |
| B13 | 0.00983 |
| B14 | 0.00985 |
| B15 | 0.111 |
| B16 | 0.0411 |

target: SARS-CoV-2 Wuhan-Hu-1 spike pseudovirus; test: pseudovirus neutralization IC90; higher = weaker neutralization
Protocol: as §1

| Binder | pseudovirus neutralization IC90 [µg/mL] |
| --- | --- |
| B1 | > 1 |
| B2 | > 1 |
| B3 | > 1 |
| B4 | > 1 |
| B5 | > 1 |
| B6 | 0.262 |
| B7 | > 1 |
| B8 | > 1 |
| B9 | > 1 |
| B10 | 0.347 |
| B11 | 0.182 |
| B12 | > 1 |
| B13 | 0.0876 |
| B14 | 0.0648 |
| B15 | 0.838 |
| B16 | 0.369 |

target: SARS-CoV-2 Wuhan-Hu-1 spike receptor-binding domain; test: ELISA binding EC50; higher = weaker binding; ELISA of recombinant human antibody on coated antigen, from 10 µg/ml in fourfold dilutions; four-parameter fit.

| Binder | ELISA binding EC50 [µg/mL] |
| --- | --- |
| B1 | 0.00216 |
| B2 | 0.452 |
| B3 | 0.00228 |
| B4 | 0.00146 |
| B5 | 0.226 |
| B6 | 0.002 |
| B7 | 0.00293 |
| B8 | 0.00198 |
| B9 | 0.00188 |
| B10 | 0.00202 |
| B11 | 0.00209 |
| B12 | 0.00142 |
| B13 | 0.00171 |
| B14 | 0.00183 |
| B15 | 0.00198 |
| B16 | 0.00176 |

Recombinant human monoclonal antibodies (heavy:light variable regions). ELISA EC50 on the named antigen, from 10 µg/ml down; IC50 / IC90 against spike pseudovirus on 293T-ACE2 cells, 48 h; lower = stronger. Calls: IC50 above 1,000 ng/ml = non-neutralizing; EC50 above 2,000 ng/ml = non-binder. The source prints 1000 for neutralization that was not reached; it is given as >1000 ng/ml. A few antibodies were first reported in earlier work of the same group.
